The whole screen tested about 410,000 compounds, of which about 6,400 (1.6%) were called active. This list was built around the results that the source calls inconclusive (neither active nor inactive); the mix of calls is not that of the screen. Calls come from the whole dose curve; as a rule, active = well fitted inhibition curve with a large enough effect; inconclusive = small, poorly fitted or top-dose-only effect; inactive = no such curve, though single readings can be large or run the other way. Potencies beside an inconclusive call are fits to weak or partial responses and may not hold up.
target: Glucagon-like peptide 1 receptor (Homo sapiens) (UniProt P43220); assay: qHTS of GLP-1 Receptor Inverse Agonists (Inhibition Mode); conditions: HEK293 GLP-1R CRE-luciferase, luminescence, 24 h, GLP-1R form is constitutively active; series mostly up to 38.3 µM; note: nearly all actives have a fitted effect of over 55% in size
How it was run: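 Using stably transfected HEK293 (constitutively active GLP-1R, cAMP-luciferase reporter), compounds were incubated 24 hr and luciferase measured by luminescence.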
Potency is the fitted concentration of half-maximal effect; tags give direction and shape of the fitted curve.

UniProt P43220, sequence (P43220 whole entry, looked up): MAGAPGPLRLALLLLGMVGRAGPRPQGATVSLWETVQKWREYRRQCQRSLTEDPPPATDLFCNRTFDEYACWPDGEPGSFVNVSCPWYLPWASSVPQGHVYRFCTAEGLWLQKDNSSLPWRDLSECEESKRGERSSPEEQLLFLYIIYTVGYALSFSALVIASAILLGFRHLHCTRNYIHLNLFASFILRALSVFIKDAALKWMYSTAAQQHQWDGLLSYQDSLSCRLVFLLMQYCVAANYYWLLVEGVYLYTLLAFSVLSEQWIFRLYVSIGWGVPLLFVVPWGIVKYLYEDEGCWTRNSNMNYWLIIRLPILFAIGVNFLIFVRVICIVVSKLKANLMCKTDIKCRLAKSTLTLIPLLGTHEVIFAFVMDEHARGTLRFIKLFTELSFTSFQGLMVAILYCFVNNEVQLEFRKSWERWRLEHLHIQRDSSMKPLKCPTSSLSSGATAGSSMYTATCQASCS

Potency, inactive:
CC(=O)c1ccc(NC(=S)Nc2cccc3cnccc23)cc1
CC1CCc2c(sc(NC(=O)Cc3ccccc3)c2C(=O)Nc2ccc(Cl)cc2)C1 (configuration not stated)
C=C(C)C(=O)Oc1ccc(N=Nc2ccc(C)cc2)ccc1=O
CCCn1c2ccccc2c2cnn(CC(=O)Nc3cc(C)c(Cl)cc3OC)c(=O)c21
COc1ccc(C(=O)C2CCCN(Cc3ccc4nonc4c3)C2)cc1OC (configuration not stated)
CCN1CCN(C(=O)CS(=O)Cc2nc(-c3cccc(C)c3)oc2C)CC1 (configuration not stated)
COc1cc(NC(=O)CC2C(=O)N(c3ccccc3)C(=O)N2Cc2ccc(F)cc2)cc(OC)c1 (configuration not stated)
CCCCN(CCCC)S(=O)(=O)c1ccc(C(=O)Nc2nnc(CSC)o2)cc1
COc1ccccc1NC(=S)NC(=O)/C=C/c1ccco1
NC(=O)C1CCN(Cc2cccc(OCc3ccccc3)c2)CC1

Potency, active:
Cc1cc(C(F)(F)F)cc(NNC(=O)NC(=O)c2c(F)cccc2Cl)n1 11.2 µM
Cc1ccc(S(=O)(=O)Nc2ccccc2C(=O)Nc2nc(-c3ccc(F)cc3)cs2)cc1 3.16 µM
CCOc1cc(/C=C2\CCC/C(=C\c3cc(Cl)c(O)c(OCC)c3)C2=O)cc(Cl)c1O 10 µM

Potency, inconclusive:
C=CCn1c(SCC(=O)Nc2ccc(-c3nc4ccc(C)cc4s3)cc2)nnc1-c1ccccc1 10 µM [inhibitor, single point]
O=S(=O)(NCCC(c1ccc(F)cc1)c1ccco1)c1ccccc1 (configuration not stated) 6.31 µM [inhibitor, partial curve, poor fit]
Cc1ccccc1Nc1cc(C(=O)NCc2ccco2)c2ccccc2n1 10 µM [inhibitor, partial curve, poor fit]
CCOc1ccc(-n2cc(-c3ccccc3)c3c(NCCc4ccccc4)ncnc32)cc1 1.78 µM [inhibitor, full curve, poor fit]
O=C(CCc1ccccc1)Nc1ccc(Cl)cn1 11.2 µM [inhibitor, partial curve, poor fit]
CCN(CC)S(=O)(=O)c1cccc(C(=O)Nc2cccc(C)c2)c1 31.6 µM [inhibitor, partial curve, poor fit]
CN1C(=O)CSc2ccc(NC(=O)NCCC3=CCCCC3)cc21 10 µM [inhibitor, single point]
CCCOCc1ccc(O)c2ncccc12 2.82 µM [inhibitor, full curve, poor fit]
CCC(=O)N(CCC(c1ccc(C)cc1)c1ccco1)Cc1ccco1 (configuration not stated) 12.6 µM [inhibitor, single point]
O=C(Nc1ccnn1C1CCN(C/C=C/c2ccc(F)cc2)CC1)C1CCCC1 8.91 µM [inhibitor, partial curve, poor fit]
CC1CCCC(C)N1CC(O)COC1CCC(C(C)(C)C)CC1 (configuration not stated) 6.31 µM [inhibitor, partial curve, poor fit]
CC(=O)Nc1ccc(NC(=O)c2oc3c(c2C)-c2nn(Cc4ccccc4Cl)cc2CC3)cc1 28.2 µM [inhibitor, single point]
CCCCc1ccc(Nc2ncccc2C#N)cc1 17.8 µM [inhibitor, single point]
CCCCC(=O)Nc1ccc2nc(SCC(=O)N3CCc4ccccc43)sc2c1 3.55 µM [inhibitor, partial curve, poor fit]
O=C(C=Cc1cccs1)c1ccc(Cl)s1 11.2 µM [inhibitor, single point]
O=C(CSc1nc2ccccc2nc1N1CCCCC1)Nc1ccc(F)cc1 2.51 µM [inhibitor, full curve, poor fit]
O=[N+]([O-])c1cccc(COc2ccc(CN3CCCC3)cc2)c1 11.2 µM [inhibitor, partial curve, poor fit]
Cc1ccc(-c2ccc(CN3C(C)C(=O)N(Cc4cn(Cc5ccco5)nn4)CCS3(=O)=O)cc2)c(C)c1 (configuration not stated) 28.2 µM [inhibitor, single point]
Cc1ccc(N2CCN(C(=O)c3nn(C)c4c3CS(=O)(=O)c3ccccc3-4)CC2)c(C)c1 28.2 µM [inhibitor, single point]
OC(COCCOc1ccc(Br)cc1)CN1CCCCC1 (configuration not stated) 5.01 µM [inhibitor, full curve, poor fit]
Cc1ccc(SCC(=O)OCC(=O)N(CC(C)C)c2c(N)n(Cc3ccccc3)c(=O)[nH]c2=O)c(C)c1 28.2 µM [inhibitor, single point]
CC(=O)c1ccc(OCC(O)CN2CCc3ccccc3C2)cc1 (configuration not stated) 1 µM [inhibitor, full curve, poor fit]
COc1ccc(OCc2nc(C#N)c(N3CCN(c4ccc(OC)cc4)CC3)o2)cc1 7.94 µM [inhibitor, partial curve, poor fit]
O=C(Nc1cccc(S(=O)(=O)N2CCCCC2)c1)c1ccc2c(=O)n3c(nc2c1)CCCCC3 10 µM [inhibitor, partial curve, poor fit]
CC(C)C(OC(=O)c1cccs1)C(=O)NCc1ccccc1 (configuration not stated) 14.1 µM [inhibitor, single point]
O=C(CCc1ccccc1)NCC(=O)N/N=C/c1ccc(O)cc1O 10 µM [inhibitor, partial curve, poor fit]
COc1ccc(NC(=O)Nc2ccc3nccnc3c2)cc1 28.2 µM [inhibitor, single point]
C=CCNC(=O)/C(=C\C=C\c1ccccc1)NC(=O)c1ccc(OCCCC)cc1 12.6 µM [inhibitor, partial curve, poor fit]
CCOC(=O)C1=CN(Cc2ccco2)S(=O)(=O)NC1c1ccc(Br)cc1F (configuration not stated) 28.2 µM [inhibitor, single point]
COc1cccc(NC(=O)CN(C)C(=O)c2cc(-c3ccccc3)nc3ccc(C)cc23)c1 7.94 µM [inhibitor, partial curve, poor fit]
COc1cccc(N2CCN(C(=O)CCC(=O)N3CCOc4ccc(C)cc43)CC2)c1 10 µM [inhibitor, single point]
O=C(Cn1ncc2c([nH]c3ccccc32)c1=O)NCCCN1CCN(c2ccc(F)cc2)CC1 11.2 µM [inhibitor, single point]
CN(C)S(=O)(=O)c1ccc(NCC2COc3ccccc3O2)c([N+](=O)[O-])c1 (configuration not stated) 11.2 µM [inhibitor, partial curve, poor fit]
COc1ccc(CN(C)CC(O)COC(c2ccc(OC)cc2)c2ccc(OC)cc2)cc1 (configuration not stated) 8.91 µM [inhibitor, partial curve, poor fit]
CCC(C(=O)Nc1ccccc1)c1ccccc1 (configuration not stated) 10 µM [inhibitor, partial curve]
CN(CC(=O)Nc1cccc(F)c1)CC(=O)Nc1cc(S(=O)(=O)N2CCOCC2)ccc1Cl 31.6 µM [inhibitor, single point]
CCN(CC)C(=O)C1=C(C)N(Cc2ccc(C(C)(C)C)cc2)C(=O)C(CC(=O)NCCCCc2ccccc2)C1 (configuration not stated) 14.1 µM [inhibitor, single point]
COc1ccc(N2CCN(C(c3cccs3)C(C)NC(=O)C(=O)N3CCCCC3)CC2)cc1 (configuration not stated) 2.24 µM [inhibitor, full curve]
CCOC(=O)/C(C#N)=C/c1c(N2CCCCCC2)nc2ccccn2c1=O 28.2 µM [inhibitor, single point]
N#CCSc1nnc(C2CCCCC2)n1-c1ccccc1 2.82 µM [inhibitor, full curve, poor fit]
Cc1cccc(NC(=S)NCC(C)CSc2ccc(Cl)cc2)c1 (configuration not stated) 7.94 µM [inhibitor, partial curve, poor fit]
CCCCNC(=O)C1CCCN(S(=O)(=O)c2c(C)noc2/C=C/c2cccs2)C1 (configuration not stated) 0.794 µM [inhibitor, full curve, poor fit]
C=CCNC(=S)NNC(=O)c1cccn(Cc2ccc(Cl)c(Cl)c2)c1=O 11.2 µM [inhibitor, partial curve, poor fit]
COc1ccc(OCCNC(=O)c2cc(C3CC3)nc3c2cnn3C(C)C)cc1 8.91 µM [inhibitor, partial curve, poor fit]
O=C(CCc1ccccc1)Nc1ncc([N+](=O)[O-])s1 28.2 µM [inhibitor, single point]
COc1ccc(CCC(=O)NCCc2csc(-c3ccc(F)cc3)n2)cc1 28.2 µM [inhibitor, single point]
COc1ccc(C(=O)C2CCCN(S(=O)(=O)c3ccc(C(C)=O)cc3)C2)c(C)c1 (configuration not stated) 11.2 µM [inhibitor, partial curve, poor fit]
CCN(CC(=O)Nc1cc(C)nn1-c1nc(C)cc(C)n1)Cc1ccccc1 11.2 µM [inhibitor, partial curve, poor fit]
COc1ccc(N2CCN(C(=O)COc3cccc4ccccc34)CC2)cc1 25.1 µM [inhibitor, single point]
